Data taken from the supplement of paper PMC10126150.
Values marked as one replicate rest on one cluster of the flow cell; about a third of the high ones do not repeat.

System: ATP
Assay: switch fluorescence ratio, 500 uM ATP over buffer (Cy3 cluster intensity, sum of 5 cycles each) (fold (ratio)); higher = stronger signal-on switching upon ATP binding; sequences stand for … in TCGTCGGCAGCGTCAGATGTGTATAAGAGACAGTTTTTTTTTTTTTTTTTTTTTTTTT…TC
Details: aptamer strand: ATP DNA aptamer (quencher-CACCTGGGGGAGTATTGCGGAGGAAGG + anchor), 100 nM annealed; ATP concentration: 500 uM; one replicate
How it was run: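 The fluorescence ratio divides summed target-cycle Cy3 intensity by summed buffer-cycle Cy3 intensity for each cluster and is averaged per switch-domain sequence. Cy3-labelled switching-strand clusters on a modified Illumina MiSeq flow-cell were annealed to 100 nM quencher-labelled ATP aptamer, then imaged in selection buffer and again after 15 min with 500 uM ATP at 22 °C. Five such cycles were run, with NaOH stripping and re-annealing between them, and clusters outside 100-1000 RFU were excluded.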
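Note: ATP exposure 15 min at 22 °C before imaging.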

## ACTAGGTACC
  switch fluorescence ratio: 1.06

## CTGTCTTTCA
  switch fluorescence ratio: 0.95

## GGGCGGGTGG
  switch fluorescence ratio: 1.02

## TTTCTGGTTA
  switch fluorescence ratio: 1.04

## TGGGCCTGTT
  switch fluorescence ratio: 0.896

## TCTCGGTTA
  switch fluorescence ratio: 1

## GCAAAGAGAA
  switch fluorescence ratio: 1.01

## AACTTGCACT
  switch fluorescence ratio: 1.1

## AATAAAGTGT
  switch fluorescence ratio: 0.946

## GTTATTGACT
  switch fluorescence ratio: 0.994

## TTAATGGTAA
  switch fluorescence ratio: 0.945

## GATAAGACGG
  switch fluorescence ratio: 1.01

## GGATTATAAA
  switch fluorescence ratio: 0.986

## GGAGCTGGGT
  switch fluorescence ratio: 1.04

## GTCGCCTAAT
  switch fluorescence ratio: 1.04

## TGATTAATCA
  switch fluorescence ratio: 0.99

## CTCTCACTCG
  switch fluorescence ratio: 1.02

## GCCCGCGCTT
  switch fluorescence ratio: 1.04

## TCGTGAATTG
  switch fluorescence ratio: 1.09

## GGTCATTTGA
  switch fluorescence ratio: 0.998

## AGAATTTGAG
  switch fluorescence ratio: 0.99

## TTTTAGGA
  switch fluorescence ratio: 1

## ATCTAGGGCG
  switch fluorescence ratio: 0.991

## GATACGGAAA
  switch fluorescence ratio: 1.03

## TGAAGGTTGT
  switch fluorescence ratio: 0.952

## AGCTCTTTTT
  switch fluorescence ratio: 1.03

## CTGATTTCAT
  switch fluorescence ratio: 0.985

## TCTGTGTGCC
  switch fluorescence ratio: 1.02

## AAGCCGGTTT
  switch fluorescence ratio: 1.01

## AAAGAGGTA
  switch fluorescence ratio: 0.972

## TTAAATTAAA
  switch fluorescence ratio: 0.957

## TAACCCCGAC
  switch fluorescence ratio: 1

## AGCTTTACGA
  switch fluorescence ratio: 1.39

## TGTTTCTGCA
  switch fluorescence ratio: 1.1

## TCACTTGTAT
  switch fluorescence ratio: 1.02

## GTTATTAATG
  switch fluorescence ratio: 1.01

## AACCATATCG
  switch fluorescence ratio: 1.03

## ATTTAGCAGT
  switch fluorescence ratio: 1.02

## TGGCTAGGTT
  switch fluorescence ratio: 0.978

## GTGTACCCAG
  switch fluorescence ratio: 1.02

## CCTGTGCCCT
  switch fluorescence ratio: 1.09

## CACGTGTTG
  switch fluorescence ratio: 1

## TTGACGGTTT
  switch fluorescence ratio: 1.02

## TGGTTTCGT
  switch fluorescence ratio: 0.949

## AGGTGAAGTA
  switch fluorescence ratio: 0.963

## CCTAAGTGAA
  switch fluorescence ratio: 1.09

## AACGCCGCCG
  switch fluorescence ratio: 0.992

## ATCAGTCCAC
  switch fluorescence ratio: 1.02

## AGTAGTCCAG
  switch fluorescence ratio: 1.01

## GCTCAATTAG
  switch fluorescence ratio: 1.02

## AACACGGGAC
  switch fluorescence ratio: 1.44

## GAACTTCGGC
  switch fluorescence ratio: 1.03

## AATCAGCCGA
  switch fluorescence ratio: 1.01

## GAGTACAGGC
  switch fluorescence ratio: 1.08

## AGAATCGGTC
  switch fluorescence ratio: 0.978

## GCTAGTGACG
  switch fluorescence ratio: 1.05

## TACTGTTCTC
  switch fluorescence ratio: 1.02

## ATATACTGAA
  switch fluorescence ratio: 1.22

## CGTTATGTGC
  switch fluorescence ratio: 0.992

## CCTTATTCTC
  switch fluorescence ratio: 1.03

## GTCACATATG
  switch fluorescence ratio: 0.943

## ACACTTGTGC
  switch fluorescence ratio: 0.953

## ACAGCTGGGA
  switch fluorescence ratio: 1.01

## TCAGGGATAT
  switch fluorescence ratio: 0.992

## TCCGGCGAGG
  switch fluorescence ratio: 1.16

## GTTTAACATT
  switch fluorescence ratio: 1.04

## CCAGGGTTTC
  switch fluorescence ratio: 1.02

## GTCAGGTGAA
  switch fluorescence ratio: 1.54

## GATAGGAGG
  switch fluorescence ratio: 1.01

## TAGAACTGCC
  switch fluorescence ratio: 1.18

## TGCTCAAGGA
  switch fluorescence ratio: 1.03

## CAGGGGACCT
  switch fluorescence ratio: 1.27

## GGTTCCTTAG
  switch fluorescence ratio: 1.03

## CATCCTTTCA
  switch fluorescence ratio: 1.03

## TAAGTTTTCG
  switch fluorescence ratio: 0.964

## CATAAATAAA
  switch fluorescence ratio: 1.02

## AAGTGTTTCT
  switch fluorescence ratio: 1.02

## AAGCTCAGGA
  switch fluorescence ratio: 0.968

## TGCACTATTT
  switch fluorescence ratio: 0.993

## TGGGATAGCG
  switch fluorescence ratio: 0.998

## AAACTCGGCA
  switch fluorescence ratio: 1.21

## TAATGCGCGC
  switch fluorescence ratio: 1.07

## CTACTCCGGA
  switch fluorescence ratio: 0.992

## ACTTGTTACC
  switch fluorescence ratio: 1.02

## CTTGTTAGCA
  switch fluorescence ratio: 0.978

## CTAGTGTTCG
  switch fluorescence ratio: 0.994

## CGGCAGACTC
  switch fluorescence ratio: 2.84

## ACCAAAATCA
  switch fluorescence ratio: 1.05

## GCCTATGCGA
  switch fluorescence ratio: 1.17

## TACGAAGCGC
  switch fluorescence ratio: 1.89

## AATAAAGAGG
  switch fluorescence ratio: 1.01

## AAACTGGACT
  switch fluorescence ratio: 1.04

## AGTTCTTGCG
  switch fluorescence ratio: 1.01

## TTATAACAT
  switch fluorescence ratio: 0.992

## CGCTATTAGG
  switch fluorescence ratio: 1.04

## AAACGCCGAG
  switch fluorescence ratio: 1.06

## GTTATTTCTA
  switch fluorescence ratio: 0.978

## TGGTAGAAAA
  switch fluorescence ratio: 0.962

## GATTGCAATG
  switch fluorescence ratio: 1.1

## TTAGGCGCC
  switch fluorescence ratio: 1

## AACAGTAGTG
  switch fluorescence ratio: 1.06

## GCCAGAATAT
  switch fluorescence ratio: 1.05

## AAATGCGATG
  switch fluorescence ratio: 0.976

## TTAAGCCTAG
  switch fluorescence ratio: 1.05

## TAAACCGACG
  switch fluorescence ratio: 1.49

## ACTCACCGGT
  switch fluorescence ratio: 1.42

## ATCGGCCGTG
  switch fluorescence ratio: 0.975

## GGGTTTGCCG
  switch fluorescence ratio: 1.13

## GGTATTTTT
  switch fluorescence ratio: 0.998

## AGCAGCCAGT
  switch fluorescence ratio: 1.03

## AATAGAGAAG
  switch fluorescence ratio: 0.972

## TTTAGCGGTG
  switch fluorescence ratio: 0.987

## CGCACAATTG
  switch fluorescence ratio: 0.987

## GAGAACCCGT
  switch fluorescence ratio: 0.967

## ATGAGTTCGT
  switch fluorescence ratio: 0.992

## GGACATAGCG
  switch fluorescence ratio: 1.05

## GAGCACGCAA
  switch fluorescence ratio: 4.95

## TTCAGTTGC
  switch fluorescence ratio: 1.06

## GTTTTGTGGC
  switch fluorescence ratio: 0.967

## TACGATACTT
  switch fluorescence ratio: 1.5

## AACGCGAATC
  switch fluorescence ratio: 2.2

## TGGTCAAAAC
  switch fluorescence ratio: 1.05

## AGTGTCGCAC
  switch fluorescence ratio: 0.976

## ACTTTTTCGA
  switch fluorescence ratio: 0.974

## CCGGTTAATT
  switch fluorescence ratio: 1.05

## TCCATTGTTC
  switch fluorescence ratio: 0.996

## TGGGTGTGCG
  switch fluorescence ratio: 1

## CGGTCTGGCG
  switch fluorescence ratio: 0.965

## GACTTATAGT
  switch fluorescence ratio: 0.973

## CCGTTTGTAA
  switch fluorescence ratio: 1.48

## TGTGTCCTTG
  switch fluorescence ratio: 1.01

## ATGTGGCGCG
  switch fluorescence ratio: 1.04

## GGGTGTTGTT
  switch fluorescence ratio: 1.01

## TAGGGAGCGA
  switch fluorescence ratio: 1

## ACCAGGCTTA
  switch fluorescence ratio: 1.06

## GCCAGATA
  switch fluorescence ratio: 1.01

## TAAATCACGT
  switch fluorescence ratio: 1.05

## AGCTGAGTTA
  switch fluorescence ratio: 0.996

## CAACTGCGGC
  switch fluorescence ratio: 1.14

## CGGCGTAGTA
  switch fluorescence ratio: 1.02

## CTGTTCGGTT
  switch fluorescence ratio: 1

## ATAGTGATT
  switch fluorescence ratio: 0.994

## TGAATAGTTC
  switch fluorescence ratio: 1.05

## GTTTTGCAGC
  switch fluorescence ratio: 1.07

## TTCGTAGTAT
  switch fluorescence ratio: 1.06

## TATAGTCTAA
  switch fluorescence ratio: 0.994

## GTTTAA
  switch fluorescence ratio: 0.941

## CCTCTTACCA
  switch fluorescence ratio: 1.09

## AGTTGTAGAA
  switch fluorescence ratio: 1.03

## TAAAGGCGTA
  switch fluorescence ratio: 0.967

## ACATAGTACA
  switch fluorescence ratio: 1.04

## GCTACTAGTG
  switch fluorescence ratio: 1.04

## GGGGTCCGCC
  switch fluorescence ratio: 1.16

## GGCGGCCCGT
  switch fluorescence ratio: 0.984

## AGAGATTGG
  switch fluorescence ratio: 0.994

## ACCCGGTAAG
  switch fluorescence ratio: 1.01

## CGCCCCAGAG
  switch fluorescence ratio: 2.82
